Experimental data taken from patent publication US5159002A, “Method for purifying dermostatin A and dermostatin B” (Xechem Inc., priority 1990, dated 1992).

System: H9 cells
Experiment: Survival/viability of HIV-infected H9 cells (trypan blue exclusion), % control
[1] = Table V, 0.01 μg/ml, HIV-1, 5760 min
[2] = Table V, 0.1 μg/ml, HIV-1, 5760 min
[3] = Table V, 1.0 μg/ml, HIV-1, 5760 min
[4] = Table V, 5 μg/ml, HIV-1, 5760 min

| Compound | Cell Survival (% Control) [1] [% Control] | Cell Survival (% Control) [2] [% Control] | Cell Survival (% Control) [3] [% Control] | Cell Survival (% Control) [4] [% Control] | Cell Survival (% Control) (Table IV, conc. 0.01 (g/ml as printed), added with HIV, 4 days) | Cell Survival (% Control) (Table IV, conc. 0.1 (g/ml as printed), added with HIV, 4 days) | Cell Survival (% Control) (Table IV, conc. 1.0 (g/ml as printed), added with HIV, 4 days) | Cell Survival (% Control) (Table IV, conc. 10 (g/ml as printed), added with HIV, 4 days) |
| --- | --- | --- | --- | --- | --- | --- | --- | --- |
| CC(C)C1OC(=O)/C=C/C=C/C=C/C=C/C=C/C=C/CC(O)C(C)C(O)CC(O)CC(O)CC(O)CC(O)CC(O)CC(O)CC(O)/C=C/C1C (stereo not drawn) [Dermostatin A] | 0 | 18 | 92 | 99 | – | – | – | – |
| CCC(C)C1OC(=O)/C=C/C=C/C=C/C=C/C=C/C=C/CC(O)C(C)C(O)CC(O)CC(O)CC(O)CC(O)CC(O)CC(O)CC(O)/C=C/C1C (stereo not drawn) [Dermostatin B] | 0 | 0 | 87 | 97 | – | – | – | – |
| C[C@@H]1[C@H](O)[C@@H](C)/C=C/C=C/CC/C=C/C=C/C=C/C=C/C(O[C@H]2O[C@H](C)[C@@H](O)[C@H](N)[C@@H]2O)CC2O[C@](O)(CC(O)C(O)CCC(O)CC(O)CC(O)CC(=O)O[C@H]1C)CC(O)C2C(=O)O (stereo partly drawn) [Nystatin, reference compound] | – | – | – | – | 49 | 58 | 83 | 110 |
